Measurements published in publication PMC7819943, “Rice protein-binding microarrays: a tool to detect cis-acting elements near promoter regions in rice”.
The other results are listed elsewhere or left out.

These sequences were tested against T1, OsWOX13 (Oryza sativa, UniProt Q5QMM3 1-267) (assay: protein-binding microarray (RPBM); PBS, 2% BSA, 51.3 ng/ul salmon testes DNA, 50 uM zinc acetate, 200 nM TF, 25 C, 1 h; high values mean tight binding). Settings: protein: recombinant; tags: N-terminal polyhistidine and DsRed monomer fusion (pET32a); label: CyDye5-dUTP incorporated in the synthesized complementary strand; 3' TTTTT single-stranded linker to array surface; dsDNA, one strand shown.
T1 sequence: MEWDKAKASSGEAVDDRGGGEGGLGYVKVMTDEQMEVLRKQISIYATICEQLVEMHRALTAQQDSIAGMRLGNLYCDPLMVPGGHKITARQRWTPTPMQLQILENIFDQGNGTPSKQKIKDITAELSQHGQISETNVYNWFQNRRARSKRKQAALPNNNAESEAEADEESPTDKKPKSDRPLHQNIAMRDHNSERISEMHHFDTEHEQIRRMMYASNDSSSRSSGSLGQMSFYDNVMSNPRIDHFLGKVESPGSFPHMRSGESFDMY
Procedure, shortened: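 In PBS with 2% BSA, salmon testes DNA and 50 µM zinc acetate, 200 nM protein was incubated on a custom Agilent array at 25 °C for 1 h and then washed off. The array had been made double-stranded by primer extension with Cy5-dUTP and blocked with 2% BSA. The proteins were transcription factors fused N-terminally to polyhistidine and DsRed, expressed in E. coli BL21-CodonPlus and purified on Ni–NTA. The binding signal is per-feature fluorescence intensity (arbitrary units) from an Axon 4000B scanner.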

Row | Sequence | binding signal
1 | ATATATGACTGATCATCCATACATTTGGAGAAGTGAAATGCGGAGTCACCTAGTGCAG | 8510 fluorescence intensity (a.u.)
2 | GCATAATTTGCATAGAAATCGCGAGACGAATCTCTAATTACGGAGTCACCTAGTGCAG | 10200 fluorescence intensity (a.u.)
3 | TATAGATTTAACACTAAATTTATCACAAATATACAAGTTTCGGAGTCACCTAGTGCAG | 11900 fluorescence intensity (a.u.)
4 | CAAGCTGACTGGTAGGTGGGCCCTCACTAGAATCACGTGCCGGAGTCACCTAGTGCAG | 4490 fluorescence intensity (a.u.)
5 | GAATAATAGGCATGGAAAATTACGTACTATAAACCACGTCCGGAGTCACCTAGTGCAG | 3220 fluorescence intensity (a.u.)
6 | AAGCTCAATTAGTGCCAAATCCGTGGAGGCAGCCGGAGGGCGGAGTCACCTAGTGCAG | 4620 fluorescence intensity (a.u.)
7 | GTTGATACTGAATAATTGAATTAGCCATTTCCAAACAGATCGGAGTCACCTAGTGCAG | 23400 fluorescence intensity (a.u.)
8 | ATAATAATTATTTGATAGTTTCAGAGTTAGGGATGGCCTACGGAGTCACCTAGTGCAG | 47500 fluorescence intensity (a.u.)
9 | TGGTGATTTAGTCCGTATGATTGGCGAATTGGTTGACAAGCGGAGTCACCTAGTGCAG | 37100 fluorescence intensity (a.u.)
10 | ATCGAATTGAGTGGTGACCAGAAACCGCAGCGGCTGCGTCCGGAGTCACCTAGTGCAG | 4980 fluorescence intensity (a.u.)
11 | ACGTTGCAAAATAACTCTGATTGAGCATACAAGTGCAGACCGGAGTCACCTAGTGCAG | 9430 fluorescence intensity (a.u.)
12 | AGGATTAATTAGGCTTAATAAATTCGTCTCGCAGTTTACACGGAGTCACCTAGTGCAG | 22000 fluorescence intensity (a.u.)
13 | TCACCTGATTAGGCTTTCAATTGGGCCGAAATGAGACTGCCGGAGTCACCTAGTGCAG | 21500 fluorescence intensity (a.u.)
14 | TATCTGATGAGAGCAGATTGCCACACATCACAGCATGCAGCGGAGTCACCTAGTGCAG | 10300 fluorescence intensity (a.u.)
15 | TCGATGTTAGATTTAATAGAATTAATTTCGTGTTATAAGACGGAGTCACCTAGTGCAG | 7400 fluorescence intensity (a.u.)
16 | AGTGAAAACGACGCTATATAATTGACAATCTGAAGGCAACCGGAGTCACCTAGTGCAG | 9170 fluorescence intensity (a.u.)
17 | AGGATAAATAATCTAGGTATAATTTTATGTTTAGCAGCACCGGAGTCACCTAGTGCAG | 5190 fluorescence intensity (a.u.)
18 | CGAGGCAGTGATTAATTAAGTAGCTAGCTAGTTACAGGCACGGAGTCACCTAGTGCAG | 14300 fluorescence intensity (a.u.)
19 | AATAACAGGAATCTGTCACATGCTCACATGTGTATAAGCCCGGAGTCACCTAGTGCAG | 7010 fluorescence intensity (a.u.)
20 | ATGTTGAAGCCCAATTAACAGGTATATACCGTCGCCTCCTCGGAGTCACCTAGTGCAG | 3510 fluorescence intensity (a.u.)
21 | CCAAAATTTAAAATTTAACATAAAATCTGAAGCTAATTTTCGGAGTCACCTAGTGCAG | 12000 fluorescence intensity (a.u.)
22 | TGCTGATGAGCTTATACATCAGAGACCTGTGCATCGCCGTCGGAGTCACCTAGTGCAG | 7770 fluorescence intensity (a.u.)
23 | TAATAATTTTAAAATTTGTTGAATAAGACAAGTGGTCAAACGGAGTCACCTAGTGCAG | 12700 fluorescence intensity (a.u.)
24 | GGGTAATTAGTCATAAGAATCAGGTGTCCCTTCACCATTGCGGAGTCACCTAGTGCAG | 30400 fluorescence intensity (a.u.)
25 | TGTCAATTAGATTCAGCAGCAAGATGGTTGGAACTTGACCCGGAGTCACCTAGTGCAG | 8500 fluorescence intensity (a.u.)
26 | CATGATTTGACAATATGGTGCTATAGTAAATATTTGCTAACGGAGTCACCTAGTGCAG | 38100 fluorescence intensity (a.u.)
27 | CTATGGACAAATTACGCATCTTCGATTGATGCTAGAGCACCGGAGTCACCTAGTGCAG | 10500 fluorescence intensity (a.u.)

Row | Sequence | binding signal
28 | CTGATCATATAATTGAGAACCAAAATGCAGCCATGACCACCGGAGTCACCTAGTGCAG | 19700 fluorescence intensity (a.u.)
29 | ACCTTGATTATGCCAAGCACTTCCCAAAATTTGGTTATCTCGGAGTCACCTAGTGCAG | 25600 fluorescence intensity (a.u.)
30 | TGGTATCGATTAACAGGTTAATTTGGAGCGTCATGGGCTACGGAGTCACCTAGTGCAG | 10400 fluorescence intensity (a.u.)
31 | TATTGATGATGAGCCCAGTTCTGAGTTATCCCGAGTCCTGCGGAGTCACCTAGTGCAG | 5490 fluorescence intensity (a.u.)
32 | GACGAGGTAATCATCAACCCAACAAAATTGATTAAACAAACGGAGTCACCTAGTGCAG | 11300 fluorescence intensity (a.u.)
33 | GACAGACATAACTAACAATATCATCAATATTAAGAAGATGCGGAGTCACCTAGTGCAG | 3370 fluorescence intensity (a.u.)
34 | TTAAACGTAGATTATTAATAAAACTCATCCATAATCTTGGCGGAGTCACCTAGTGCAG | 7420 fluorescence intensity (a.u.)
35 | CCCATCAAATTAACGCCTTCAAAGTTGGGCCGTCCAACGACGGAGTCACCTAGTGCAG | 3200 fluorescence intensity (a.u.)
36 | AATTTAATTGGAAAAGTAATTAAAATTCCTCTTTTCCTTTCGGAGTCACCTAGTGCAG | 43400 fluorescence intensity (a.u.)
37 | CCACATTTATATTGATCTAGATTTATTAATATCATTATGACGGAGTCACCTAGTGCAG | 10800 fluorescence intensity (a.u.)
38 | GCCCACATTTGGCTATTCTGATTGGATGGCTAAATTTGGGCGGAGTCACCTAGTGCAG | 12700 fluorescence intensity (a.u.)
39 | CTGTGGATTGATGATTACAAAGGTACAATGCACGTATGATCGGAGTCACCTAGTGCAG | 44900 fluorescence intensity (a.u.)
40 | AAAATGATTATCTTAAGTGGCTAAGGCTTACAATGAATTGCGGAGTCACCTAGTGCAG | 28300 fluorescence intensity (a.u.)
41 | GGAACATTGATAGATGGACTTTGTAAGTCAGGCAGAGTAGCGGAGTCACCTAGTGCAG | 19400 fluorescence intensity (a.u.)
42 | ATTAGATTTACCGCAAACAATGACGTCCTCCCTGCCTGGACGGAGTCACCTAGTGCAG | 4950 fluorescence intensity (a.u.)
43 | ATTTTATTTACTGATTATTGAAATGGATTATGGACTATTTCGGAGTCACCTAGTGCAG | 18000 fluorescence intensity (a.u.)
44 | AAAATATAATCATGAGAATGAGTTACGTTACATGAATGACCGGAGTCACCTAGTGCAG | 3290 fluorescence intensity (a.u.)
45 | CATAACTTGCTGAGATGACAGATGATCAAACAAGCTCATGCGGAGTCACCTAGTGCAG | 8260 fluorescence intensity (a.u.)
46 | TAACGTAATTAATGTGTTGTTCATCAGGAATTAGGAGACGCGGAGTCACCTAGTGCAG | 26900 fluorescence intensity (a.u.)
47 | TCTGATATTGAAATTGAAGTTAATACAGATGATGAGGAGACGGAGTCACCTAGTGCAG | 6070 fluorescence intensity (a.u.)
48 | GCCGGAATTAATACTAAATTTCCCGCGAAGTACAGAGGCGCGGAGTCACCTAGTGCAG | 5760 fluorescence intensity (a.u.)
49 | GGTCCAGCCCTGCGCTACGGTGATTGGCCCACACCTGTCACGGAGTCACCTAGTGCAG | 3880 fluorescence intensity (a.u.)
50 | ATTTCAAAACATAATTTTAAATTTATGTTTTGGGCCTTTTCGGAGTCACCTAGTGCAG | 4860 fluorescence intensity (a.u.)
51 | CCAAATTGTATTGTGCACGCGCCGACAAGCCCGGACAGCCCGGAGTCACCTAGTGCAG | 3980 fluorescence intensity (a.u.)
52 | TAGCAATAAATTTGCATGACTAACCTTTTGATCGGATGTTCGGAGTCACCTAGTGCAG | 5500 fluorescence intensity (a.u.)
53 | ATTCAATCAAATCACTCCAAGCAAGCAGTCTGCATCAGACCGGAGTCACCTAGTGCAG | 18100 fluorescence intensity (a.u.)
54 | TTCGTAATTTACAGCTCATCCTTTTATAGTAGTAGTAGCTCGGAGTCACCTAGTGCAG | 20600 fluorescence intensity (a.u.)
